The values that follow come from patent US20230414779A1, “ANTIGEN-BINDING FRAGMENTS AND USES THEREOF” (NewSouth Innovations Pty Limited, priority 2020, published 2023).

“Also recorded” adds a separate entry of the source.

Experiment [1] relates to platelets. The experiment in a line: Serotonin release assay (platelet activation). The experiment is classed as cell-based, human. The note with it: 0.1 IU/ml heparin; induced by KKO (FIG. 4) / HIT serum. The source says:
FIG. 4 is a graph of the serotonin release assay. Serotonin release was induced by a HIT-like monoclonal antibody (KKO) and was inhibited by parental scFv, HRU5, HRU6 or HRU7. Heparin was used at therapeutic low concentrations (L, 0.1 U) and at inhibitory high concentration (H,100 U). Dotted lines denote 0% and 20% CPMA. Values over 20% are considered positive. CPMA, counts per minute.
SRA is the gold standard to confirm the presence of platelet-activating HIT antibodies. Platelets from a healthy donor were labelled with Hydroxytryptamine Binoxalate, 5-[2-^14C]-(Serotonin) (^14C-5HT) (1.5 μl/ml) and mixed with heparin (0.1 (low dose) or 100 IU/ml (high dose)) in the presence of HIT serum. The protein of interest was then added to the reaction and incubated at room temperature for 1 h. After centrifugation the supernatant was collected and the ^14C-serotonin released was measured in a scintillation counter. The percentage of ^14C-serotonin released was calculated by determining the proportion in the supernatant relative to the remaining ^14C-serotonin in platelets. A test result is defined as positive if more than 20% serotonin release is detected with a therapeutic heparin concentration of (0.1 IU/ml) but not with a high dose of heparin (100 IU/ml).

For experiment [2], the system named is human platelets. The experiment in a line: Platelet binding, flow cytometry (platelet-based fluorescent assay). The note with it: labelled scFvs, in words. Here is the method:
FIG. 1D provides graphs of platelet-based fluorescent assay measurements with KD and R^2 values for the parental scFv, HRU5 and HRU6. Non-linear regression analysis (one-site specific binding) was used to determine KD and R^2 values. GMF, geometric mean fluorescence.
Platelet-rich plasma (PRP) was obtained from whole blood after centrifugation at 200×g for 10 min. Washing/Suspension buffer (PBS, 0.5% BSA, 25 mM EDTA, pH 6.8) was used for platelet preparation throughout the experiment. 4 μl of PRP was incubated with various concentrations of fluorescently labelled HRU molecules for 30 min. Cells were washed once with 500 μl of buffer (PBS, 0.5% BSA, 25 mM EDTA, pH 6.8), suspended in 200 μl of PBS and analysed by flow cytometry (Cantoll, BD Biosciences).
(In general: In flow cytometry, cells or beads pass a laser one at a time.)

Experiment [3] deals with monocytes. The experiment in a line: Binding to monocytes in vivo after iv injection, flow cytometry. Also on record: species or system mouse. The note with it: bled at 1 min and 15 min. Here is the method: FIG. 6A is a plot showing the binding of HRU4, HRU5 and HRU6 to monocytes in vivo. Labelled HRU proteins were injected intravenously into double transgenic mice (FcγRIIA/hPF4). Mice were bled at 1 min and 15 min and binding was determined by flow cytometry.

Experiment [4] has as its system platelets. The experiment in a line: Thrombin-induced platelet aggregation. In kind it is cell-based, human. The note with it: 0.3 U of thrombin. The text has this:
For thrombin induced platelet aggregation samples were mixed as described above in the presence of 0.3 U of thrombin.

Experiment [5] relates to whole blood. Put plainly: Thrombin-induced fibrin deposition in whole blood, microfluidics chamber. The experiment is classed as cell-based. The note with it: 0.08 U/ml of thrombin added to whole blood. Here is the method:
FIG. 3C provides fluorescence microscopy images of fibrin deposition. Whole blood was incubated with 0.08 U/ml of thrombin and stained with Alexa Fluor 647 anti-fibrin monoclonal antibody in the absence (vehicle) or presence of HRU5 or HRU6. White fluorescence indicates fibrin deposition.
(§1) HRU6 and HRU7 also contain anti-thrombin activity provided by the lepirudin and bivalirudin moieties respectively. The Hemoclot thrombin inhibitor assay was used to determine the anti-clotting activity. The normal clotting time range is 15-24 sec.

Experiment [6] addresses T1, thrombin (Homo sapiens).
T1 construct: purchased Diagnostica STAGO S.A.A
The experiment in a line: Thrombin time assay in plasma. The experiment is classed as biochemical. The note with it: undiluted plasma, increasing concentrations, in words. Here is the method: FIG. 3B is a graph of a Thrombin Time Delay assay for HRU6 and HRU7. Increasing concentrations of HRU molecules were incubated with undiluted plasma prepared from ACD anticoagulated blood. Clotting time of control plasma (untreated plasma) is shown corresponding to 0 concentration (closed circle). […] Clotting time is shown in sec.
The STA-Thrombin kit (Diagnostica STAGO S.A.A.) was used for the determination of the thrombin time by a haemostasis analyser. Plasma was prepared from ACD anticoagulated normal blood by centrifugation for 10 min at 2500×g. 500 μl of undiluted plasma, in the absence and presence of different inhibitor concentrations (e.g., HRU6 and HRU7), was analysed. Thrombin time of the plasma was determined by the analyser.
as §1

B1: HRU6: HRU5 linked to lepirudin (an anticoagulant peptide) by a Ser2Gly12 linker (protein)
scFv: EVQLVESGPELKKPGETVKISCKASGYTFTNYGMNWVKQAPGKGLKWMGWLNTYTGESIYPDDFKGRFAFSLETSASTAYLQINNLKSEDTATYFCARGDYGYDDPLDYWGQGTSVTVSSGGGGWAWVWLTETAVGGGGSDIVMTQAPPSVPVTPGESVSISCRSSKSLLHTNGNTYLHWFLQKPGQSPRLLIYRMSVLASGVPDRFSGSGSGTDFTLKISRVEAEDVGVYYCMQHLEYPLTFGAGTKLEIKRAGGGGSGGGGSGGGGLTYTDCTESGQNLCLCEGSNVCGQGNKCILGSDGEKNQCVTGEGTPKPQSHNDGDFEEIPEEYLQHHHHHH
For B1, the 14C-serotonin release entry in experiment [1] is reported as “inhibited”. In experiment [2], the “binding to human platelets” value was “stronger binding to human platelets than expected”. The binding to monocytes entry in experiment [3] is “unexpectedly strong binding to monocytes”. The “inhibition of thrombin-induced platelet aggregation” value in experiment [4] is “inhibit thrombin-induced platelet aggregation in a dose dependent manner”. The “inhibition of fibrin deposition” value in experiment [5] is “completely inhibits fibrin deposition”. Besides, the thrombin clotting time result in experiment [6] was “significant increases in thrombin clotting time; also recorded: prolong clotting time in a dose-dependent manner”.
